Measured values taken from PubChem BioAssay AID1347120 (National Center for Advancing Translational Sciences (NCATS), 2019).
About 930 (0.24%) of roughly 390,000 compounds were called active. Inconclusive results, whose numbers are uncertain, are shown with a selection of clear calls. The call rests on the fitted dose curve; in most records, active means well fitted activation curve with a large enough effect; inconclusive means small, poorly fitted or top-dose-only effect; inactive means no such curve, though single readings can be large or run the other way. A potency beside an inconclusive call is a rough fit, not a confirmed value.

Assay: qHTS for Suppressors of FUS Proteinopathy: Primary screen using FUS-linked yeast assay; further: nearly all actives have a fitted effect of over 55% in size;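 on growth rescue (activation): plate controls were DMSO vehicle for no effect and reference control for full effect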
Conditions: S. cerevisiae FUS-expressing, OD600, 24 h; Potency: growth rescue; growth rescue (activation): at 76.6 µM (top of the series)
In short: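 Steps: raffinose overnight preculture; dilution to OD 0.005 in 2% galactose minimal medium; compound addition (concentration series); 24hr at 30C, 99% humidity; absorbance read at 600 nm.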
Potency means the concentration at half of the fitted maximal effect; tags describe the fitted curve by direction and shape.

Row | SMILES | Potency | growth rescue (activation)
1 | COc1ccc(CCNc2nc(SCc3ccc(F)cc3)nc3ccccc23)cc1OC | inactive | –
2 | CC1(C)c2[nH]c3ccccc3c2C[C@H]2C(=O)N(Cc3ccc(F)cc3)C(=O)N21 | inconclusive: 39.8 µM [activator, single point] | –
3 | Cc1cccc(Nc2nc(N3CCCCC3)nc(N3CCCCC3)n2)c1 | inconclusive: 35.5 µM [activator, single point] | –
4 | COc1ccccc1-c1c(C)nn2c(N3CCN(c4ccc(F)cc4)CC3)cc(C)nc12 | inactive | –
5 | COc1cc2cc(CN(Cc3cccs3)C(=S)Nc3ccccc3)c(=O)[nH]c2cc1OC | inconclusive: 28.2 µM [activator, single point] | –
6 | Cc1ccc(CN2CCC(CNC(=O)Nc3cccc(C)c3C)C2)cc1 (centres undefined) | inactive | –
7 | CSc1nnc(CSCc2ccc(Cl)cc2Cl)n1-c1ccccc1 | inconclusive: 20 µM [activator, partial curve, poor fit] | –
8 | Cc1ccc2c(c1)CCCN2C(=O)c1ccoc1C | active: 5.62 µM | –
9 | CC(=O)N1CCCc2cc(S(=O)(=O)N3CCCC(C(=O)Nc4ccc(C)c(F)c4)C3)ccc21 (centres undefined) | inconclusive: 35.5 µM [activator, single point] | –
10 | COc1ccccc1CNC(=O)COc1ccccc1C | inactive | –
11 | CCc1ccc(S(=O)(=O)c2cn(Cc3ccc(OC)cc3)c3cc(OC)c(OC)cc3c2=O)cc1 | inactive | –
12 | COC(=O)c1ccccc1NC(=O)CCC(=O)N1CCSc2ccccc21 | inactive | –
13 | CC(=O)Nc1ccc2nc(SCCOc3ccccc3Cl)sc2c1 | inconclusive: 31.6 µM [activator, single point] | –
14 | Cc1cc(C)c(NC(=O)C2CCCN(C(=O)c3cnn(-c4ccccc4)c3-n3cccc3)C2)c(C)c1 (centres undefined) | inconclusive: 25.1 µM [activator, single point] | –
15 | COC(=O)c1cc2sccc2n1Cc1nc(-c2ccc(C)cc2)oc1C | inactive | –
16 | COc1cccc(CNC(=O)N2CCN(c3ccccc3C)CC2)c1 | inconclusive: 10 µM [activator, full curve, poor fit] | –
17 | Cn1c(=O)[nH]c(=O)c2c1ncn2CCN1CCOCC1 | – | inconclusive: -150% [activator]
18 | COc1ccc(/C=N/N=C2/NC(=O)C(CC(=O)NC(C)C)S2)cc1 (centres undefined) | inactive | –
19 | N#CC1=C(S)N(c2ccc(F)cc2)C2(CCCCC2)NC1=O | inactive | –
20 | CC(=O)N1CCc2c(sc(NC(=O)CSc3ccc(F)cc3)c2-c2nc3ccccc3s2)C1 | inconclusive: 50.1 µM [activator, single point] | –
21 | COc1ccc(S(=O)(=O)N2CCCCC2)cc1NCC(=O)Nc1ccc(C)cc1 | inconclusive: 25.1 µM [activator, partial curve, poor fit] | –
22 | COCCn1nnnc1CN1CCN(C(=O)c2ccco2)CC1 | inactive | –

Row | SMILES | Potency | growth rescue (activation)
23 | COC(=O)[C@@]12CCCCC3=C1N(CCC3)C(=O)[C@H]2CC(=O)N1CCN(C(=O)c2ccco2)CC1 | inactive | –
24 | O=C(COc1ccccc1)Nc1nc(-c2cccnc2)cs1 | inconclusive: 20 µM [activator, partial curve, poor fit] | –
25 | COc1ccc(C2=CC(=O)C[C@H](c3ccc(OC)c(OC)c3)C2)cn1 | inactive | –
26 | CCn1c(C)c(C)c2cc(C(=O)NCCc3cc(OC)ccc3OC)ccc21 | inconclusive: 35.5 µM [activator, single point] | –
27 | COc1ccc(-c2csc(NC(=O)CS(=O)(=O)c3ccccc3)n2)cc1 | inconclusive: 28.2 µM [activator, single point] | –
28 | O=C(CCNC(=O)c1ccc(Br)cc1)NCc1ccco1 | inconclusive: 1 µM [activator, full curve, poor fit] | –
29 | CC1CC(C)CN(C(=O)C(C)N2CCN(S(=O)(=O)c3ccc(C(F)(F)F)cc3)CC2)C1 (centres undefined) | inconclusive: 8.91 µM [activator, partial curve] | –
30 | CCN(CC(=O)Nc1ccc(OC)cc1)CC(=O)Nc1sc2c(c1C(=O)OC)CCCC2 | inconclusive: 31.6 µM [activator, single point] | –
31 | COC(=O)c1sccc1S(=O)(=O)N(CC(=O)Nc1cc(F)ccc1F)c1ccc(C)c(C)c1 | inconclusive: 50.1 µM [activator, single point] | –
32 | O=C(NC1CCCCN(Cc2ccc(Cl)cc2)C1=O)c1cccc2nsnc12 (centres undefined) | inconclusive: 31.6 µM [activator, single point] | –
33 | COc1cc(NC(=O)c2ccccc2Cl)c2ncccc2c1 | inactive | –
34 | CCSc1nc2sc3c(c2c(=O)n1-c1ccc(C)c(Cl)c1)CCN(C(C)=O)C3 | inconclusive: 25.1 µM [activator, partial curve, poor fit] | –
35 | O=S(=O)(c1ccc2nc(Nc3ccc(Br)cc3F)ccc2c1)N1CCCCC1 | inactive | –
36 | N#CC1=C(N)N2C(=C(C#N)C1c1ccc(Br)cc1)Nc1ccccc12 (centres undefined) | inactive | –
37 | O=S(=O)(Nc1cccc(-c2ccc(N3CCOCC3)nn2)c1)c1ccc(F)c(C(F)(F)F)c1 | inconclusive: 39.8 µM [activator, single point] | –
38 | COc1ccc(CCNC(=O)c2ccc3c(c2)CCN3S(=O)(=O)c2ccc(C)cc2)cc1OC | inconclusive: 17.8 µM [activator, partial curve, poor fit] | –
39 | C=CCC[C@@H](Cc1ccc(F)cc1)C(=O)OC[C@@H](NC(=O)[C@H](CC=C)CC(=O)N(CCO)Cc1ccccc1)c1ccccc1 | inconclusive: 14.1 µM [activator, partial curve, poor fit] | –
40 | COc1ccc(Nc2cc(C(=O)NCc3ccco3)c3ccccc3n2)c(OC)c1 | inconclusive: 50.1 µM [activator, partial curve, poor fit] | –
41 | CCN(CC)c1nn2c(=O)c(C(=O)NCc3ccccc3Br)cnc2s1 | inactive | –
42 | Cc1cccc(NC(=O)c2ccc(Cn3nc(N4CCN(c5ccccc5)CC4)ccc3=O)o2)c1C | inconclusive: 28.2 µM [activator, single point] | –
43 | O=C1NC[C@@H](Cc2cccc3ccccc23)N(CCc2cc(C(F)(F)F)cc(C(F)(F)F)c2)C1=O | inconclusive: 28.2 µM [activator, single point] | –
44 | O=C(c1cc(C2CC2)nn1-c1ccccc1)N1CCN(c2ccc(O)cc2)CC1 | inconclusive: 17.8 µM [activator, partial curve, poor fit] | –

Row | SMILES | Potency | growth rescue (activation)
45 | CC(=O)Nc1ccc(CNc2nc3cc(-c4ccccc4C)sc3c(=O)n2C)cc1 | inconclusive: 50.1 µM [activator, single point] | –
46 | C=CCOC(=O)C1=C[C@H](c2ccc(C(F)(F)F)cc2)[C@@H](CCCO)[C@H](OCC)O1 | inconclusive: 31.6 µM [activator, single point] | –
47 | Cc1ccc(N(CC(=O)N2CCN(c3cccc(C)c3C)CC2)S(=O)(=O)c2c(C)nn(C)c2C)cc1 | inconclusive: 35.5 µM [activator, partial curve, poor fit] | –
48 | CCCCCCCNC(=O)C1(CC2CC(c3ccccc3)=NO2)CCN(C(=O)OC(C)(C)C)CC1 (centres undefined) | inconclusive: 11.2 µM [activator, partial curve] | –
49 | CCC1CCCCN1C(=O)Cn1c(=O)n(-c2ccc(Cl)c(Cl)c2)c(=O)c2c(C)c(C(=O)N(C)C)sc21 (centres undefined) | inconclusive: 20 µM [activator, partial curve, poor fit] | –
50 | COc1cc(-c2coc3c(C(=O)NCc4ccc(C(F)(F)F)cc4)cccc23)ccc1O | inconclusive: 35.5 µM [activator, single point] | –
51 | O=C(O)CC(NC(=O)C12CC3CC(CC(C3)C1)C2)c1ccc(OC2CCCC2)cc1 (centres undefined) | inconclusive: 35.5 µM [activator, single point] | –
52 | COCCN=C1S/C(=C\c2cc(C)n(-c3ccc(F)cc3F)c2C)C(=O)N1C | inconclusive: 20 µM [activator, partial curve] | –
53 | Cc1ccc(C(C)(C)C)cc1S(=O)(=O)Nc1cccc(C(=O)N2CCN(c3ccccn3)CC2)c1 | inconclusive: 50.1 µM [activator, partial curve, poor fit] | –
54 | CN(C(=O)CSc1nc(-c2ccccc2)c(-c2ccccc2)o1)C1CCS(=O)(=O)C1 (centres undefined) | inconclusive: 50.1 µM [activator, single point] | –
55 | Cc1ccc(N2CCN(C(C(=O)Nc3c(C)cccc3C)c3ccccc3OC(F)(F)F)CC2)cc1 (centres undefined) | inconclusive: 28.2 µM [activator, single point] | –
56 | COc1cc(OC)cc(C(=O)Nc2cccc(-c3cn4ccsc4n3)c2)c1 | inconclusive: 44.7 µM [activator, single point] | –
57 | O=C(NCCSc1ccc(Cl)cc1)c1ccco1 | inactive | –
58 | Clc1ccc(CNc2ncnc3onc(-c4ccc(Cl)cc4)c23)cc1 | inconclusive: 3.16 µM [activator, full curve] | –
59 | Cc1c(Cl)cccc1NC(=S)N1CCN(Cc2ccc3c(c2)OCO3)CC1 | inconclusive: 31.6 µM [activator, single point] | –
60 | CN1C(=O)c2ccccc2Sc2ccc(NC(=O)N3CCN(c4cccc(Cl)c4)CC3)cc21 | inactive | –
61 | CSc1oc(-c2ccco2)nc1S(=O)(=O)c1ccccc1 | inactive | –
62 | COc1ccc(S(=O)(=O)NNS(=O)(=O)c2ccc(OC)c(OC)c2)cc1OC | inactive | –
63 | C[C@H](CO)N1C[C@H](C)[C@@H](CN(C)C(=O)Nc2ccc3c(c2)OCO3)Oc2ccc(NC(=O)Nc3ccc(C(F)(F)F)cc3)cc2C1=O | inconclusive: 28.2 µM [activator, single point] | –
64 | CCN(CC)S(=O)(=O)c1cccc(C(=O)Nc2ccccc2C(=O)Nc2ccc(OC)cc2)c1 | inactive | –
